This is an account of results in the supplement of paper PMC3334620.

The full ranking holds about 33,000 sequences; the median of “E-score (-0.5 to 0.5)” is about -0.013, and the highest 2% start at about 0.3. The list shows a part of the results.

The test concerns the target T1, Msn1 (UniProt P22148).
T1 sequence: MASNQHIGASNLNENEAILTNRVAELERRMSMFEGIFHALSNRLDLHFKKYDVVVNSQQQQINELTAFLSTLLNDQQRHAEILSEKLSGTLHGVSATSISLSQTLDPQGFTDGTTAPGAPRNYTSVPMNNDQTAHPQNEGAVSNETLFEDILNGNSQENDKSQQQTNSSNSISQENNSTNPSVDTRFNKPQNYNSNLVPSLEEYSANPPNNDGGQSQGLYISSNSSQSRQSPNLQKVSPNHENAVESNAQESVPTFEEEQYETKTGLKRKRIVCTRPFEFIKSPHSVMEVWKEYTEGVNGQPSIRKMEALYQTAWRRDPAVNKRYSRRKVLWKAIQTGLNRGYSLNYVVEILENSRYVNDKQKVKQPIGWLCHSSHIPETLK
Put plainly: PBM E-score (8-mer binding enrichment) (E-score (-0.5 to 0.5)); higher = stronger / more preferred TF binding; most listed sequences are background and not binding sites. Conditions: protein concentration: 200 nM; construct: GST-full length. Put shortly:
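Yeast transcription factors carrying a GST tag, as full-length proteins or DNA-binding domains, were produced by PURExpress in vitro transcription/translation. About 100-200 nM protein was applied to universal all-10-mer Agilent arrays, double-stranded by primer extension on fresh or once-stripped slides. Bound protein was detected with fluorescent anti-GST, and scans were normalised with masliner. The Universal PBM Analysis Suite gave each ungapped eight-base word, pooled with its reverse complement, an E-score, a modified Wilcoxon-Mann-Whitney statistic.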
For CTAAAACA, the “PBM E-score” value was found to be 0.0605.
With TGTTTTAA the figure was 0.168.
Consider CGAATGGA, for which the “PBM E-score” value turned out to be 0.0673.
ATTCCCGA: the “PBM E-score” value was determined as 0.0205.
With ACGTTTAC the figure was 0.0555; with AATTAAAA, 0.162.
Under CATACACA stands -0.0667; under AAGGTACG, -0.069; under ACTTTGGG, -0.0621.
GTGAATGA: the “PBM E-score” value is 0.0546.
With CAGACTGC the figure was -0.058; with AACCCCTA, -0.213.
Under GCCAGCGC stands -0.193; under ACAATTAC, 0.204.
Under TCTAAGAA stands 0.266; under ACTCGTAG, -0.158; under AGACCGCG, -0.0273.
Consider AGAGATAG, for which the “PBM E-score” value was -0.0658.
Under GCCGGGCA stands -0.169.
With ATACTTGA the figure was -0.054; with ACTGGTTG, -0.0344; with GAAAATGC, 0.0894.
With AGTCAGAC the figure was 0.176.
On to ATCAACGG, for which the “PBM E-score” value is 0.176.
With AGCCGATC the figure was -0.0201; with CAGATACC, -0.0556.
With CCTATCAG the figure was -0.252.
With AGAGCCTG the figure was -0.0449; with GCAATGCA, -0.0348; with ATTTGTGC, 0.093.
For CCACCTGG, the “PBM E-score” value is -0.38.
With CGTGGTAA the figure was -0.0664; with ATGTTTCG, 0.0846; with ACCGCTAT, 0.0288.
Under TAAGGAGA stands -0.255.
With CCCTTGAA the figure was -0.0891; with ATCCACCG, 0.0604.
On to GAGACTAC, for which the “PBM E-score” value is -0.0763.
Under AAGACTGA stands -0.00313; under CCGAAAAC, 0.0665; under GTACTAAC, 0.0331.
Under CATCAAGG stands -0.254.
Take CCAATTAC: the “PBM E-score” value is -0.00963.
Under GACCACAA stands -0.152; under GTCGCTGA, 0.129.
AATGGTAG: the “PBM E-score” value was 0.0825.
With ACATACAG the figure was 0.167; with CTCCGTGA, 0.115; with ACCTACAG, -0.0496.
Under AACCCCCC stands -0.291.
With ATGCCCCC the figure was -0.224.
For CGCAGAGC, the “PBM E-score” value is -0.129.
With CTAACTGC the figure was -0.0906.
As for GCATCTTA, the “PBM E-score” value was determined as 0.0374.
Consider CATCGTGC, for which the “PBM E-score” value came to 0.145.
On to AACCGTCG, for which the “PBM E-score” value turned out to be 0.0394.
As to CCTATGCG, the “PBM E-score” value is -0.0132.
With ATCCCGCA the figure was 0.00249.
Under GTCCTTGA stands 0.285.
Under AAAAGCGA stands 0.0705; under GCTTAGGA, -0.117; under ATTATAAG, 0.103.
On to CCATTACA, for which the “PBM E-score” value is 0.121.
With CGGAGCCA the figure was -0.214; with GAGGGCAC, -0.321; with ACCCTTTA, 0.0137.
With CAATATCG the figure was 0.016; with ACGGCAAA, 0.0443; with AGCCCCCC, -0.432.
For GGGCACAC, the “PBM E-score” value is -0.166.
With CACAGGCC the figure was 0.00035; with CATTTCGA, 0.15; with GAGCGGGA, -0.17.
Under TCATTGAA stands 0.0398.
In the case of CTGGAATC, the “PBM E-score” value was -0.151.
With AAATTATA the figure was 0.165; with CATCTGGC, -0.0625.
Under AACTATGC stands 0.0573.
With CTTTAACC the figure was 0.0113.
As to AAGCCAAA, the “PBM E-score” value was -0.0623.
ACGTTGAG: the “PBM E-score” value is -0.0298.
With CCGGAAGG the figure was 0.033; with TAGAATAA, 0.115.
For the sequence CATAGCCC, the “PBM E-score” value is -0.188.
With ATAAACTG the figure was 0.108; with CTTGGTGA, -0.182; with CCTGAGTA, -0.0416.
Under AATTAAGC stands 0.00396; under CTGGCCGC, 0.0571.
With CTCAGTAA the figure was 0.0439; with GAATAAGA, 0.0359.
As to AGCGATGG, the “PBM E-score” value is -0.0716.
AAATGCTG: the “PBM E-score” value was 0.155.
Under GCACGCGA stands -0.00286.
